“And” between values parts separate entries of the source, which are not always exact repeats. Identical values can stand only once. Inconclusive results, whose numbers are uncertain, are shown with a selection of clear calls. For part of these data: A potency beside an inconclusive call is a rough fit, not a confirmed value. For part of these data: A note “side channel” means that the fit belongs to a control or component signal, not to the main read-out. The source made the active and inactive calls. Unless noted, calls follow the shape of the dose curve; as a rule, active = well fitted curve in the direction sought with a large enough effect; inconclusive = small, poorly fitted or top-dose-only effect, or another doubt; inactive = no such curve, though single readings can be large; an effect the other way counts as inactive or inconclusive.
How the values were obtained:
[1] = target: Peroxisome proliferator-activated receptor delta (Homo sapiens) (UniProt Q03181); assay: qHTS assay for small molecule agonists of peroxisome proliferator-activated receptor delta signaling (AID 588534; calls by dose curve; also: potency is read from the fitted curve at half-maximal effect;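 as to activation: 0% = DMSO basal wells and 100% = positive control agonist at 10 µM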); details: HEK293T PPARdelta-UAS-bla, beta-lactamase ratio, 18 h; activation: at 76.7 µM (top of the series)
Procedure, shortened: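 Fluorescence from CCF4 substrate cleavage by beta-lactamase reporter, read 2 hrs at RT, measured agonist activity. Compounds were tested with 18 hrs exposure at 37 C. Concentration-response data fitted to Hill equation.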

[2] = target: Peroxisome proliferator-activated receptor gamma (Homo sapiens) (UniProt P37231); assay: qHTS assay for small molecule agonists of peroxisome proliferator-activated receptor gamma signaling (AID 588536; active = well fitted curve in the direction sought with a large enough effect in the signal ratio, with a control signal flat, not every such curve was filed as active; inconclusive = small, poorly fitted or top-dose-only effect, or effect the other way, or a change in a side signal; inactive = no such curve, though single readings can be large or run the other way; the % refers to the signal ratio;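 also: 0% = DMSO basal wells and 100% = rosiglitazone at 2 µM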); details: HEK293 PPARg-UAS-bla, beta-lactamase ratio, 16 h, percent of rosiglitazone response
Procedure, shortened: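 Test agents, titrated, stimulated HEK293 UAS-bla cells overnight (16 h, 37 C). Substrate CCF4 was then added for two hours at room temperature before fluorescence reading.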

[3] = target: Retinoic acid receptor RXR-alpha (Homo sapiens) (UniProt P19793); assay: qHTS assay for small molecule antagonists of retinoid X receptor alpha signaling (AID 588546; active = well fitted inhibition curve with a large enough effect in the signal ratio, with a control signal flat, not every such curve was filed as active; inconclusive = small, poorly fitted or top-dose-only effect, or effect the other way, or a change in a side signal; inactive = no such curve, though single readings can be large or run the other way; the % refers to the signal ratio;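 also: cells stimulated with 9-cis-retinoic acid as agonist; % is scaled to controls: 0 for no effect and ±100 for the full control effect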); details: HEK293T RXRa-UAS-bla, beta-lactamase ratio, antagonist mode
Procedure, shortened: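 Beta-lactamase reporter inhibition, read as CCF4 fluorescence ratio (ex 405, em 460/530 nm) after 2 h at RT. HEK293T UAS-bla cells, 2500/well, were stimulated with 9-cis-RA at 500 or 100 nM final alongside test compound for 18 h at 37 C.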

[4] = qHTS assay for small molecule agonists of the antioxidant response element (ARE) signaling pathway (AID 651741; active = well fitted activation curve with a large enough effect in the signal ratio; inconclusive = small, poorly fitted or top-dose-only effect, or effect the other way, or a change in a side signal; the % refers to the signal ratio; also: potency is read from the fitted curve at half-maximal effect; as to activation: % of control where 0% means no effect); details: HepG2 ARE-bla reporter, beta-lactamase FRET ratio, 16 h; activation: at 96 µM (top of the series) unless noted
Procedure, shortened: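 Quantitative HTS in HepG2 cells stably expressing an ARE-beta-lactamase reporter; 16 h compound exposure at 37 C, followed by 2 h room-temperature incubation with LiveBLAzer B/G FRET substrate and fluorescence measurement.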

[5] = Cellular Toxicity (caspase-3) Renal Proximal Tubule (AID 667); details: renal proximal tubule cells, primary cells freshly taken from rat, solvent-only wells 0%, staurosporine 100%; at 91.7 µM (top of the series);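 also: cells exposed to compound for 16 hours at 37 °C before detection; 0% = DMSO basal and 100% = 10 µM staurosporine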
Procedure, shortened: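 Luminescent caspase 3/7 signal from peptide-aminoluciferin cleavage measures apoptosis in freshly isolated rat kidney proximal tubule cells after 16 h compound exposure. Concentration-response data are normalized to DMSO and 10 uM staurosporine, and AC50 values come from Hill equation fits.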

[6] = target: Cytochrome P450 3A4 (Homo sapiens) (UniProt P08684); assay: qHTS Assay for Inhibitors and Substrates of Cytochrome P450 3A4 (AID 884); also: % is scaled to controls: 0 for no effect and ±100 for the full control effect; nearly all actives have a fitted effect of over 50% in size
Procedure, shortened: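 20 nM human CYP3A4 with 25 uM Luciferin-PPXE (at KM) in 200 mM KPO4, preincubated 10 min with compound; NADPH regeneration started a 60 min RT reaction. Luciferin detected by luminescence, normalized to 57 uM ketoconazole as full inhibition.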

[7] = Cell Viability - LYMP2-003 (AID 965);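 also: cells exposed to compounds for 24 h before reading; 0% = DMSO only and full effect = 92 µM tetraoctylammonium bromide; nearly all actives have a fitted effect of over 50% in size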
Procedure, shortened: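 CellTiter-Glo luminescence (cellular ATP) after 24 h compound exposure at 37 C in complete medium; 2500 cells/well, 5 h settling beforehand. Concentration-response fitted to standard Hill equation for AC50. Tetraoctylammonium bromide served as positive control.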

[8] = target: Peroxisome proliferator-activated receptor delta (Homo sapiens) (UniProt Q03181); assay: qHTS assay for small molecule antagonists of peroxisome proliferator-activated receptor delta signaling (AID 588535; active = well fitted inhibition curve with a large enough effect in the signal ratio, with a control signal flat, not every such curve was filed as active; inconclusive = small, poorly fitted or top-dose-only effect, or effect the other way, or a change in a side signal; inactive = no such curve, though single readings can be large or run the other way; the % refers to the signal ratio); details: HEK293T PPARd-UAS-bla, beta-lactamase FRET ratio, 18 h; activity change, negative = inhibition: at 76.7 µM (top of the series) unless noted
Procedure, shortened: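 HEK293T PPAR-delta-UAS-bla cells, 4000/well, 2% charcoal/dextran FBS; 5 h 37 C; cpd titration; 18 h 37 C; CCF4 2 h RT; FI 460/530 nm; Hill fit → IC50, efficacy.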

[9] = target: Peroxisome proliferator-activated receptor gamma (Homo sapiens) (UniProt P37231); assay: qHTS assay for small molecule antagonists of peroxisome proliferator-activated receptor gamma signaling (AID 588537; active = well fitted inhibition curve with a large enough effect in the signal ratio, with a control signal flat, not every such curve was filed as active; inconclusive = small, poorly fitted or top-dose-only effect, or effect the other way, or a change in a side signal; the % refers to the signal ratio; also: potency is read from the fitted curve at half-maximal effect;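 also: reporter cells co-stimulated with 50 nM rosiglitazone agonist during compound treatment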; as to activity, negative = inhibition: % of control where 0% means no effect); details: HEK293 PPARg-UAS-bla, beta-lactamase ratio, antagonist mode; activity, negative = inhibition: at 76.8 µM (top of the series)
Procedure, shortened: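 Antagonist mode, beta-lactamase reporter in HEK293; charcoal/dextran FBS 1%; 3000 cells/well, 37 C 6-6.5 h; cpd titration + rosiglitazone 50 nM final, 16 h 37 C; CCF4, 2 h RT; 460/530 nm; Hill fit → IC50, efficacy.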

[10] = target: Thyroid hormone receptor beta (Homo sapiens) (UniProt P10828); assay: qHTS assay for small molecule antagonists of thyroid hormone receptor beta signaling (AID 588547; active = well fitted inhibition curve with a large enough effect in the signal ratio, with a control signal flat, not every such curve was filed as active; inconclusive = small, poorly fitted or top-dose-only effect, or effect the other way, or a change in a side signal; the % refers to the signal ratio;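 also: cells stimulated with 0.4 nM T3 agonist during compound exposure; % is scaled to controls: 0 for no effect and ±100 for the full control effect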); details: TR-UAS-bla HEK293, beta-lactamase ratio, antagonist mode, 18 h
Procedure, shortened: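 Inhibition of T3-driven (0.4nM final) beta-lactamase reporter activity was measured over 0.59 nM to 92 uM compound after 18 h at 37 C. The cells were GripTite HEK293 TR-UAS-bla in charcoal/dextran-stripped serum, with CCF4 ratio read-out and IC50 from Hill fits.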

[11] = target: Tumor necrosis factor (Homo sapiens) (UniProt P01375); assay: qHTS assay to identify small molecules that stimulate Tumor Necrosis Factor-alpha (TNF-alpha) secretion (AID 651757; active = well fitted curve in the direction sought with a large enough effect in the signal ratio; inconclusive = small, poorly fitted or top-dose-only effect, or a change in a side signal; inactive = no such curve, though single readings can be large or run the other way; the % refers to the signal ratio; also: 0% is about no effect); details: Human cells, HTRF 665/615 ratio; activation (TNF-alpha secretion): at 92.2 µM (top of the series)
Procedure, shortened: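 Read-out is HTRF, a TR-FRET sandwich of cryptate- and XL665-labeled anti-TNF-alpha antibodies detecting cytokine secreted by THP-1 cells. Cells had been incubated with test compounds at 37 C for 17 hrs beforehand.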

[12] = qHTS assay to identify small molecules that stimulate interleukin-8 (IL-8) secretion (AID 651758; active = well fitted activation curve with a large enough effect in the signal ratio; inconclusive = small, poorly fitted or top-dose-only effect, or effect the other way, or a change in a side signal; the % refers to the signal ratio; also: 0% is about no effect); details: HTRF ratio (665/615); activation: at 92.2 µM (top of the series)
Procedure, shortened: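 Secreted IL-8 measured by TR-FRET sandwich (cryptate and XL665 antibodies) from THP-1 cells exposed to compound overnight (16 hrs, 37 C).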

[13] = qHTS assay for small molecule antagonists of the retinoid-related orphan receptor gamma (ROR-gamma) signaling pathway - cell viability counter screen (AID 720652; active = well fitted curve in the direction sought with a large enough effect in the repeat runs; inconclusive = weak or mixed curves; inactive = no such curve, though single readings can be large; an effect the other way counts as inactive or inconclusive;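 also: compound exposure lasted 16 hr before ATP read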; also: potency is read from the fitted curve at half-maximal effect)
Procedure, shortened: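 Luminescence from CellTiter-Glo after 30 min at room temperature reported cellular ATP as the cytotoxicity measure. Cells were the CHO reporter line with doxycycline-induced ROR-gamma expression, exposed to compound for 16 hr at 37 C.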

[14] = MultiTox-Fluor Cytotoxicity Assay - LYMP1-001 - Live Cells (AID 947);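 also: 0% = DMSO only and full inhibition = tetraoctylammonium bromide control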
[15] = MultiTox-Fluor Cytotoxicity Assay - LYMP1-002 - Dead Cells (AID 960); details: LYMP1-002 lymphoblastoid cells, dead-cell protease fluorescence; cytotoxicity (dead cells): at 46.1 µM (top of the series); also: potency is read from the fitted curve at half-maximal effect; nearly all actives have a fitted effect of over 60% in size
Procedure, shortened: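 LYMP1-002 cells 2500/well; 5 hr 37 C pre-incubation; compound 16 hr 37 C; MultiTox-Fluor reagent 60 min RT; dead-cell fluor Ex/Em 485/520. Norm. to DMSO (0%) vs 15 uM tetraoctylammonium bromide (100%); Hill AC50.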

[16] = qHTS assay for small molecule disruptors of the mitochondrial membrane potential - 1 hr assay (AID 651754; calls by dose curve; also: % is scaled to controls: 0 for no effect and ±100 for the full control effect; nearly all actives have a fitted effect of over 35% in size); details: ratio change, negative = depolarisation: at 92.2 µM (top of the series)
Procedure, shortened: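 HepG2, 2,000 cells/well, overnight attachment; cpd or DMSO 1 hr, 37C/5% CO2; Mito-MPS dye 30 min, 37C; fluorescence monomer (490/535) and aggregate (540/590).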

[17] = target: Voltage-gated inwardly rectifying potassium channel KCNH2 (Homo sapiens) (UniProt Q12809); assay: qHTS Assay for Small Molecule Inhibitors of the Human hERG Channel Activity (AID 588834); details: U2OS BacMam hERG, FluxOR thallium flux fluorescence; at 92.2 µM (top of the series);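 also: top concentration of the series differs between compounds; % is scaled to controls: 0 for no effect and ±100 for the full control effect; lower thallium flux fluorescence means stronger hERG block; nearly all actives have a fitted effect of over 50% in size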
Procedure, shortened: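 Concentration-response qHTS measuring drop in thallium-sensitive dye signal. U2OS cells carrying BacMam hERG; compound exposure ~10 min, then stimulation buffer and 2 min read at 1 sec intervals.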

[18] = target: Nuclear receptor ROR-gamma (Homo sapiens) (UniProt P51449); assay: qHTS assay for small molecule antagonists of the retinoid-related orphan receptor gamma (ROR-gamma) signaling pathway (AID 651802); also: potency is read from the fitted curve at half-maximal effect; nearly all actives have a fitted effect of over 60% in size
Procedure, shortened: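 CHO, TET-inducible ROR + RORE-LUC reporter, 1536-well qHTS. Compound pinned, doxycycline added, 16hr 37C/5% CO2. ONE-Glo, 30 min RT, luminescence; signal drop scored as antagonism.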

[19] = activation: at 76.7 µM (top of the series), DMSO as zero unless noted
Tags tell the direction and shape of the fitted curve or compound fluorescence and quenching.

Chain of UniProt Q03181 (Q03181 whole entry, looked up): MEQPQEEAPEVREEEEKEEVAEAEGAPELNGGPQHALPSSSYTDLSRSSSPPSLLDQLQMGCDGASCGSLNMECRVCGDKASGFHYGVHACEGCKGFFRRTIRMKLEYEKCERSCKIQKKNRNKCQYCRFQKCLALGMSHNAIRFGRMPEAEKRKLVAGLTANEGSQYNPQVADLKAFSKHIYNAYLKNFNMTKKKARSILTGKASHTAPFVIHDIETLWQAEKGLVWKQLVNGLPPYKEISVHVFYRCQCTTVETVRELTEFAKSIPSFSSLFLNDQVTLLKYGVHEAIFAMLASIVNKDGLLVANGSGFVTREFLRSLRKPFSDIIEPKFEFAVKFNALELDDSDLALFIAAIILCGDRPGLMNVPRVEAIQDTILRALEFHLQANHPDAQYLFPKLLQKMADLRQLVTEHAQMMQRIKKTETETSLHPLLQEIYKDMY
Chain of UniProt P10828 (P10828 whole entry, looked up): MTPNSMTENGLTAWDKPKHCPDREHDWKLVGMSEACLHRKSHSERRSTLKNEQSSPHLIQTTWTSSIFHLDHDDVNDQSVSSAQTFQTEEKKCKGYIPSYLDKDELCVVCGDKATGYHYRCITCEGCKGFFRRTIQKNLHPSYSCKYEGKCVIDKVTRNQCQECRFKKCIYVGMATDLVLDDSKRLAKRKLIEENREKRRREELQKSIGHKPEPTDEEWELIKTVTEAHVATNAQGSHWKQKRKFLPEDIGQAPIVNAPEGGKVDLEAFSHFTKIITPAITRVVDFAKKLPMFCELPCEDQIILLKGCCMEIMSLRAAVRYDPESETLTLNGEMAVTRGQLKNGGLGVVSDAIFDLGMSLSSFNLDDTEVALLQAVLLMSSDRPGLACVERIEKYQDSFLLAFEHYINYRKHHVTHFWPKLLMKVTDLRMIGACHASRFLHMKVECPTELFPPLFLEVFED
Chain of UniProt P51449 (P51449 whole entry, looked up): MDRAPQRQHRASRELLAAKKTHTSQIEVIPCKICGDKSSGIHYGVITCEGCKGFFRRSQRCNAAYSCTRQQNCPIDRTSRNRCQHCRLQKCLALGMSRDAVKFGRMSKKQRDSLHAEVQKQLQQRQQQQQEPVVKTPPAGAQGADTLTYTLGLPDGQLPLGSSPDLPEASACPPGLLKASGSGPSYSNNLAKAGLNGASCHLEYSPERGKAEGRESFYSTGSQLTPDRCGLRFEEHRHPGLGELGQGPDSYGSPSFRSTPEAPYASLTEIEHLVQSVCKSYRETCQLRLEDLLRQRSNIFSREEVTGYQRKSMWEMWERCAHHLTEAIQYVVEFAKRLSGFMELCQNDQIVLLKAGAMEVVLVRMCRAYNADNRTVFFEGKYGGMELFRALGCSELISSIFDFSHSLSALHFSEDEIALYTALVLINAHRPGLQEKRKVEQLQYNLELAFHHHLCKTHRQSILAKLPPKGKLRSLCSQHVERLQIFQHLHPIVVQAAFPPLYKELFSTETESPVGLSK
Chain of UniProt P19793 (P19793 whole entry, looked up): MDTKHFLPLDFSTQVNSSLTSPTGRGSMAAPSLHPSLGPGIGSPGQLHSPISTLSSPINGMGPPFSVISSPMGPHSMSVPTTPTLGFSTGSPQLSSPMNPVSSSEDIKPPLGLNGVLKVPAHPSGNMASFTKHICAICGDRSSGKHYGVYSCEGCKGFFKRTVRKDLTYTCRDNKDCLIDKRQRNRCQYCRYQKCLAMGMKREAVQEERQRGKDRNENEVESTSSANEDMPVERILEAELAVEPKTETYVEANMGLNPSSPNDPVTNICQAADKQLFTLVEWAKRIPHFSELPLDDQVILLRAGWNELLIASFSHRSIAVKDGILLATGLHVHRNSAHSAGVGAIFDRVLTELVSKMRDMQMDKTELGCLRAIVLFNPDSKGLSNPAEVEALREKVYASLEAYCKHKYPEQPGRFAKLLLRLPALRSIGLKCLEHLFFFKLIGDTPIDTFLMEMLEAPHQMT
Chain of UniProt P01375 (P01375 whole entry, looked up): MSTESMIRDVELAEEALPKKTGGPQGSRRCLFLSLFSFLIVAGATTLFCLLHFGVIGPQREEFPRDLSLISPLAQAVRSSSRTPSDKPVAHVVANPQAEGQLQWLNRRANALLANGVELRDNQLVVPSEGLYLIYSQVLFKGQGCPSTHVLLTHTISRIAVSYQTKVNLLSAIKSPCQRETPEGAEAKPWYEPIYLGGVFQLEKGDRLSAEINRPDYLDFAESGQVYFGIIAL
Chain of UniProt P08684 (P08684 whole entry, looked up): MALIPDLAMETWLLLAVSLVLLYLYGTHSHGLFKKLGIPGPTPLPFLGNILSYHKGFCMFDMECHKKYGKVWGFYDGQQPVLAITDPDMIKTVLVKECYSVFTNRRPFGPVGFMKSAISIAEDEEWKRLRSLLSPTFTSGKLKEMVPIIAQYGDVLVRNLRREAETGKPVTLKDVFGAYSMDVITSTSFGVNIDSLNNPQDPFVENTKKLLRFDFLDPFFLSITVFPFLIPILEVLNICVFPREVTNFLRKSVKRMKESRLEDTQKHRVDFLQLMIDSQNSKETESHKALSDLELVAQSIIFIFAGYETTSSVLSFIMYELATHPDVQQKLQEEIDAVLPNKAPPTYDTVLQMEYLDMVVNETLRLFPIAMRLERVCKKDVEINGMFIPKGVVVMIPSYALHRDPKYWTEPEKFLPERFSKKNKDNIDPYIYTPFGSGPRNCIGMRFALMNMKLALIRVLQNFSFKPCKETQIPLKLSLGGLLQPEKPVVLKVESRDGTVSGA
Chain of UniProt Q12809 (Q12809 whole entry, looked up): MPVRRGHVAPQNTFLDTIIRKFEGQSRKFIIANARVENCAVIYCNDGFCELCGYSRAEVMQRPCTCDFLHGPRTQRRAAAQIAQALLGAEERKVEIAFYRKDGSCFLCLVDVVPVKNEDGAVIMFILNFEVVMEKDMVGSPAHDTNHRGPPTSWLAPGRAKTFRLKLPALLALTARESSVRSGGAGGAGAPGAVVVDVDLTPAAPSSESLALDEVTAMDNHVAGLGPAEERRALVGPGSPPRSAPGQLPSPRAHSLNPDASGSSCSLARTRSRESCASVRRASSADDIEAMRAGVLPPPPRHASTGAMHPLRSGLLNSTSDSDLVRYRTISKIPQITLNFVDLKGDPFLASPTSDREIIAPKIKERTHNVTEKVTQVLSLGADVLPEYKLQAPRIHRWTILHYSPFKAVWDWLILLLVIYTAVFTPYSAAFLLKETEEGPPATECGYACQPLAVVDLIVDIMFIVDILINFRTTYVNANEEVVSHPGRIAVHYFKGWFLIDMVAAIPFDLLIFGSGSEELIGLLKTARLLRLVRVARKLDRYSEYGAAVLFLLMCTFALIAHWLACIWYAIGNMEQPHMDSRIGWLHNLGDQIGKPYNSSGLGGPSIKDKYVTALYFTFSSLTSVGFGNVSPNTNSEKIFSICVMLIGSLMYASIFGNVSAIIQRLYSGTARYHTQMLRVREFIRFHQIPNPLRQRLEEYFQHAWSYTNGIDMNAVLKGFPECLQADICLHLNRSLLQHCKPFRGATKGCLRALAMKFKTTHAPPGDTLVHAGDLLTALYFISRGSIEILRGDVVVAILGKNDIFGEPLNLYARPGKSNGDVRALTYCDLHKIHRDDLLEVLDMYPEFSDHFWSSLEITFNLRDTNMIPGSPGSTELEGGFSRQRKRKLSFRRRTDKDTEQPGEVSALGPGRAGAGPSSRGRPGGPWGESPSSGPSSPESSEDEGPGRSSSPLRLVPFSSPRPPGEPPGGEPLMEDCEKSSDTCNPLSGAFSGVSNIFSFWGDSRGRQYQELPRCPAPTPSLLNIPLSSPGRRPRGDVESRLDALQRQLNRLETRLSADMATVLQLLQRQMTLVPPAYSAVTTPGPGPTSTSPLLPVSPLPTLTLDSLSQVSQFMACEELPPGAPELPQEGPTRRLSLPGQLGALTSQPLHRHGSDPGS

SMILES: CNC(=O)Oc1cc(C)cc(C(C)C)c1
- Potency [1]: inactive
- Potency [2, 19]: inactive
- max response [3]: inactive: -3.46%
- activation [4]: inconclusive: 10.6%

SMILES: ClCCBr
- caspase-3 activation [5]: inactive: 4.51%
- Potency [6]: inactive
- Potency [7]: inactive
- Potency [1]: inconclusive: 44.7 µM [activator, partial curve]
- Potency [8]: inactive
- Potency [9]: inactive
- activity change % (negative = inhibition) [10]: inactive: 0.0673%
- Potency [11]: inactive
- Potency [12]: inactive
- Potency [13]: inactive

SMILES: CC(Cl)(Cl)Cl
- Potency [14]: inactive
- Potency [15]: inconclusive: 0.1 µM [cytotoxic, full curve, poor fit]
- Potency [8]: inactive
- activation [2, 19]: inconclusive: 8.37%
- activation ([2]; at 76.7 µM (top of the series), DMSO as zero): inactive: -0.644%
- activity change % (negative = inhibition) [10]: inactive: 0.316% and inactive: -7.15%
- Potency [4]: inactive and inconclusive: 54.5 µM [activator, partial curve]
- Potency [16]: inactive
- Potency [12]: inactive

SMILES: CC(C)CON=O
- Potency [8]: inactive
- Potency [9]: inconclusive: 44.7 µM [activator, single point]
- activity change, negative = inhibition [17]: inactive: 1.35%
- Potency [4]: inconclusive: 37.6 µM [side channel, rising, partial curve, poor fit]
- activation [12]: inconclusive: -7.59%
- Potency [18]: inconclusive: 33.5 µM [inhibitor, single point]
- Potency [13]: inconclusive: 75 µM [rising, partial curve, poor fit]

SMILES: CC(C)(C)C(O)(CCc1ccc(Cl)cc1)Cn1cncn1 (stereo unspecified)
- Potency [1]: inconclusive: 39.8 µM [side channel, rising, single point]
- Potency [9]: inactive
- activity change % (negative = inhibition) [10]: inactive: -8.05% and inactive: 4.64%
- Potency [4]: inconclusive: 75 µM [activator, single point]
- activation [12]: inconclusive: -1.71%
- Potency [18]: inconclusive: 33.5 µM [inhibitor, partial curve, poor fit]
